These results are taken from the supplement of paper PMC3334620.

In all, about 33,000 sequences were measured (“E-score (-0.5 to 0.5)”: median about -0.056, highest 2% from about 0.38 on). The list shows a part of the results.

The target in the assay is Stb4 (UniProt P50104). Put plainly: PBM E-score (8-mer binding enrichment) (E-score (-0.5 to 0.5)); higher = stronger / more preferred TF binding; most listed sequences are background and not binding sites. The conditions noted are these: protein concentration: 200 nM; construct: GST-DNA-binding domain. The procedure, abridged:
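E-scores (a modified Wilcoxon-Mann-Whitney statistic) were assigned by the Universal PBM Analysis Suite to every ungapped eight-base word pooled with its reverse complement. The input came from universal all-10-mer Agilent arrays made double-stranded by primer extension and probed with GST-tagged yeast transcription factors at about 100-200 nM. Fluorescent anti-GST detected bound protein, and masliner normalised the scans.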
Consider CAAGGGGA, for which the “PBM E-score” value is -0.248.
For AAAGGAAA the value was 0.0679; for ATGTAACA, -0.0218.
For CTCGGCGA the value was 0.397; for GTGTTTCA, 0.00798; for GCTATAAC, 0.019.
Regarding AGGAAGGC, the “PBM E-score” value was -0.178.
As to GCCTGAAC, the “PBM E-score” value is -0.201.
For CCCTACGC, the “PBM E-score” value is -0.0928.
Next, CCCCACCC: 0.242; CTTCAGAA: 0.0359; GGGCCACC: 0.108.
Next, CAATGTCC: 0.00172.
For CCATATTC the value was -0.0336; for ATCAGCCC, -0.0686; for ACCTTCGG, 0.404.
Consider GTGCCAGA, for which the “PBM E-score” value is -0.31.
Next, GGTATGCA: -0.00611; CGGTATAC: 0.203; AGAGGCCT: -0.147.
As for ATCGATGG, the “PBM E-score” value was -0.0949.
Turning to AAGGTTGC, the “PBM E-score” value was -0.168.
Turning to GGCTCGAC, the “PBM E-score” value was -0.106.
For GCCTCACC the value was -0.0746.
In the case of CGCTTGGA, the “PBM E-score” value is -0.0767.
Next, CAGTATGC: -0.0123; TATCTCGA: -0.244; AGTGTAAA: -0.151.
On to AAATCTAA, for which the “PBM E-score” value was -0.0554.
For AGTTTTGA the value was -0.0084.
For ACTCCAAC the value was -0.11; for GATCCTCC, 0.101.
With ACTCTAAT, the “PBM E-score” value was -0.203.
For GCAGCAAA the value was -0.117; for GGGATTGA, -0.0318; for CGGGGGGC, 0.0311.
For CACGTGTC the value was -0.165.
For GGGCCCAA the value was -0.0507.
In the case of CGGTGTCC, the “PBM E-score” value came out at 0.15.
AAGATAAC: the “PBM E-score” value was -0.0237.
Next, TGCCCTAA: -0.195.
For ACTTTTTA the value was -0.153; for GCAGCGCC, -0.0264.
For ACGTAGCT the value was -0.34.
With GGCGTGTA, the “PBM E-score” value was -0.049.
With ATCGTAAA, the “PBM E-score” value was -0.279.
Take GCAACGCA: the “PBM E-score” value is -0.0257.
In the case of CTGGGTGA, the “PBM E-score” value is -0.0308.
Next, AGAGCAAT: -0.174; AAGAGCGG: 0.12; TCACCCGA: 0.407.
For CACCTTTC the value was 0.0203; for ATATTTAA, -0.0566.
Next, GACATTGC: -0.107; ATGGTCCC: -0.126.
Consider CGGTACTC, for which the “PBM E-score” value is 0.155.
For GCATAAAC the value was 0.0326; for ATCCTGTC, 0.103; for AACATAGT, -0.0823.
For ATAGCTCA the value was -0.215; for CACTAAGA, -0.242; for CGGGCCAA, 0.168.
Turning to AAAAAGAC, the “PBM E-score” value is -0.0725.
For AGCTGATA the value was -0.047; for TCAGACGA, -0.138.
Regarding AAGAGGAC, the “PBM E-score” value is -0.18.
For CACATCAC the value was -0.0222; for CTAAGTAC, -0.0951; for GCGCAAGC, -0.251.
For the sequence ACACCAGC, the “PBM E-score” value was -0.183.
For ACGCTTAA the value was -0.217.
TAGACTCA: the “PBM E-score” value was -0.0962.
Consider ACTCGGTC, for which the “PBM E-score” value was found to be 0.204.
For TACCATCA the value was -0.168.
Next, ATAATAAA: -0.0519; CGCTTTGA: -0.0214; AGGGGACC: -0.211.
Next, GCCTACTA: -0.226; ATTAGTTG: -0.204; CTAATACC: 0.13.
Turning to ACTAGTCC, the “PBM E-score” value is -0.0909.
Take AACTCGCG: the “PBM E-score” value was -0.00482.
Next, GGGTAAGA: 0.0992.
Next, CGGTAAAC: 0.163; AATGGCGC: 0.00122; AAGGTGGA: -0.12.
